These results are taken from article PMC12136788.

B1: chr19:40030274:40030275:-_ENSG00000176396_ENST00000390658|hu_hu|FALSE|FALSE (ssRNA)
RNA: GGGAGUUCUACAGUCCGACGAUCCGGGUAAUUUUCCAGAUAGUGGCGGAGAAACUGCUGGUAAUUGAUGCCUAAAACGCUAAGUGGGUGGCGGAGACGGAGAUAGGGCAACGCAGCCAGGCCUCCGUUCCCGUGUCUGGACCUCAACAGAGGAUUGAGCAUCA
B2: chr8:80578333:80578334:+_ENSG00000104435_ENST00000220876|hu_mus|FALSE|FALSE (ssRNA)
RNA: GGGAGUUCUACAGUCCGACGAUCAACUCCAAUUCUUUAUUCAUCACAGCUUGCUCACAAUGACAUACAAGAAGAUAGCACUGACGAAGAGUAAAUAUGCAGGCAGUUUGGGAGUUGGGAGUUGGGAGUUAGGGAGAAACAACUCAACAGAGGAUUGAGCAUCA
B3: chr22:32879901:32879902:+_ENSG00000100225_ENST00000397426|hu_hu|FALSE|FALSE (ssRNA)
RNA: GGGAGUUCUACAGUCCGACGAUCCUCUGCCAUAUGCGCAUUAUCUUGAAUUGACUCAGCUUCAAAAUUUUGACUAGGCCCUAACAUACUGUCGUCAUUCCAAACACCAGACUGGGCUGCCUGUCCUUGGAAUGAAUCACUUGGCAACAGAGGAUUGAGCAUCA
B4: chr5:176562935:176562936:+_ENSG00000165671_ENST00000439151|hu_mus|FALSE|FALSE (ssRNA)
RNA: GGGAGUUCUACAGUCCGACGAUCGGGACUGGAGUCUGGAUCAUCCUGAAAAGAUAAAUUUAUUGAGUUAAAUUGCUCUUCUACGGUAACGUUCGUGUCUCCUAGUGAGGUGGGGGCUGGGAGGAGGGCUGUCUUUUCAUUGCUCAACAGAGGAUUGAGCAUCA
B5: chr1:66480114:66480115:+_ENSMUSG00000015222_ENSMUST00000024639|mus_hu|mus_mus_mus_hu_True|58_108 (ssRNA)
RNA: GGGAGUUCUACAGUCCGACGAUCUGGCCUGUGACGGAUGUUCUUCAGAGAGCCACAUUUGGAUGUCACAUGGCUUAAGUCUAUCUUCUUGGUAACAAUUUGUACCUGCCCCCCUUUAGGCUGGUAUUUGAUGUUGUCUGUUGACAACAGAGGAUUGAGCAUCA
B6: 121983341_121984406_576_CDS_ENSMUSG00000029454_ENSMUST00000153763|mouse|control|control (ssRNA)
RNA: GGGAGUUCUACAGUCCGACGAUCCGAGGUAGGUAUGAUGCCAGACUUCUCCUUCUGGUGCCGUCUCUGCGCUUCCAGUACCUGAGGUGCUACAUAGUAAGGGGUAAACUGGGGUGUCAUCAAAUCACCUUGGUCAACUUUAGCCAACAGAGGAUUGAGCAUCA
B7: chr7:72892388:72892389:-_ENSG00000009954_ENST00000339594|hu_mus|FALSE|FALSE (ssRNA)
RNA: GGGAGUUCUACAGUCCGACGAUCUUCUUUGUAAUAGGCAAUCAGAUGCAGAGCUGCAGGAGGCAGGUGUUUGUGAGGUUUACCAGAAGACCUUGGCACACCCCCAGAACUCCGUGGGGUGCGGGUCAUCUUCUGAGUCCCUUUCAACAGAGGAUUGAGCAUCA
B8: 117043516_117043636_1225_CDS_ENSG00000003096_ENST00000371878|human|control|control (ssRNA)
RNA: GGGAGUUCUACAGUCCGACGAUCCGAUUUCCACUCAUGGGCCUUUUCAUCAUACAUGCGCAAUUCCUUACUGACAACCAGCUGCUGCCUCAGCACUCCUCCUAGUGUAACCAAGUGAGUGGUGUCAGACCUAAUGGCAGUCCUCAACAGAGGAUUGAGCAUCA
B9: 49052207_49054487_3773_CDS_ENSG00000008294_ENST00000262013|human|control|control (ssRNA)
RNA: GGGAGUUCUACAGUCCGACGAUCGGGUAUAAAUGUCCCUGGAGUCACUUUAUCACUGUUUUCAUCACCAUAUACACGGAUUACACUUCCAGGACGAUUUCCUGGUACACCUGAGGUUUUAUUUGUUUCUGUCAAUGGGAUGGACAACAGAGGAUUGAGCAUCA
B10: chr16:87731977:87731978:+_ENSMUSG00000025612_ENSMUST00000026703|mus_mus|motif|central (ssRNA)
RNA: GGGAGUUCUACAGUCCGACGAUCAUGUACUUUCACACAGUGAGCACUCUCUCCCAGGAAAAUUGAGUGGACUUCUCAAAAUUUCGGGAAAAUAAUUCCAAUUUAAUUUUCUCUUCCAAAGAUGAAAACACAUACCACCCUUCCCAACAGAGGAUUGAGCAUCA
B11: chr3:148802587:148802588:-_ENSG00000071794_ENST00000310053|hu_mus|hu_hu_hu_mus_False|48_78 (ssRNA)
RNA: GGGAGUUCUACAGUCCGACGAUCUCCAACAACUUGUCCUCUCAUAGUUCCAAAUAAAACGGAAUCUUGCUCUUCAUCACUCGUUAGAAAGUCAUCUGGAGGAAUAAUGUCUUGGAAUUCAAAAUGUGGCAAGAAAGUUGAGUACAACAGAGGAUUGAGCAUCA
B12: chr1:94953452:94953453:+_ENSG00000117528_ENST00000370214|hu_hu|FALSE|FALSE (ssRNA)
RNA: GGGAGUUCUACAGUCCGACGAUCUUCUGUAAUCCGAGCAGUAAAACCGGCCAAUCUAGUCAUUUCACGCCCAGCCAAAACUAUUCGACCCAGAGCUUGAGACAUUCGCAAAAGCAUUCUUCCACUUUGGUAGUAAUCCUCUAGCAACAGAGGAUUGAGCAUCA
B13: chr5:17772112:17772113:-_ENSMUSG00000057614_ENSMUST00000074694|mus_mus|FALSE|FALSE (ssRNA)
RNA: GGGAGUUCUACAGUCCGACGAUCAAGUCUAAGAUCCUGUGUCCUGAAAAAAUCUGGAGAUUUGGUUUCUUAAAUAAAUCUAAACUAGAGUCAGAACAUCAUGCACUCUGUAAAUAAAUUCUAAUGCACUCAAUGCUUAAAUAACAACAGAGGAUUGAGCAUCA
B14: 66526805_66526925_1538_3pUTR_ENSG00000108946_ENST00000358598|human|control|control (ssRNA)
RNA: GGGAGUUCUACAGUCCGACGAUCACAUCAUUACUCUAUGGUAAUUCAAUAGGUGCUGGGAUCUGCCCUCACCAAAAAGCAUGGCACUCACUGCCCAGGGUGAAUACUAACACUGCACAAAGAGAAGCAGUAACAGCAAAGUCUCAACAGAGGAUUGAGCAUCA
B15: 32949551_32953290_374_CDS_ENSG00000060749_ENST00000399302|human|control|control (ssRNA)
RNA: GGGAGUUCUACAGUCCGACGAUCGCCUGUCUGCCAGGAUGGAGCCCUGAAUUGUGGUAAGAGAGUAGUUCCUGAAGCAGCAGCCUGAGCAGUUCGGGAUUCAGCAGUAGACAGAAAAUUCAUCACUGAAGACUCUUUAGUGUUCAACAGAGGAUUGAGCAUCA
B16: 107066159_107066279_1795_CDS_ENSMUSG00000049606_ENSMUST00000112696|mouse|control|control (ssRNA)
RNA: GGGAGUUCUACAGUCCGACGAUCCACAAACGUCUUAGGGCAAUUGGUACCAAACACACACUGAGGGCACUGGAGUCGAGCACUUCUGCCUUCAUCCUGGAGCUCUUUCAGCUCACGAAUCUCUUCCAUCAGCUUCUGCCGUCUCAACAGAGGAUUGAGCAUCA
B17: chr2:238002776:238002777:+_ENSG00000198612_ENST00000392008|hu_mus|motif|central (ssRNA)
RNA: GGGAGUUCUACAGUCCGACGAUCGAUGGAGGUAUAAGCUUGAGAGACCAGGGCAAAGGCGCGUCUCCUUGUUGCAUCUCGGAGGGCUUCCAUGAUUGGCUGCACAGUCUCUGACCACUGGUGGGCGUUGAUGGUUGUAUAGAUCAACAGAGGAUUGAGCAUCA
B18: chr6:44218252:44218253:+_ENSG00000096384_ENST00000371646|hu_mus|FALSE|FALSE (ssRNA)
RNA: GGGAGUUCUACAGUCCGACGAUCAUUGGUGAGGCUCUUAUAGAAUUCGCCAUACUCCUCCUGCGUGAUGUCAUCCGGGUUUCUGGUCCAGAUAGGCUUUGUCUUGUUCAGCUCCUCCUGGUCAAUGUACUUCUCUUUGAUCUUCAACAGAGGAUUGAGCAUCA
B19: chr5:72798899:72798900:+_ENSG00000145741_ENST00000335895|hu_mus|FALSE|FALSE (ssRNA)
RNA: GGGAGUUCUACAGUCCGACGAUCGGGUGCUUUUCCAUCCACAGAUUGUUUGGGCAGAGCUUCAGCCAGUCUCCUUAAACUAGUCAGGCUGUCUGCACCAAGCUGGUUGAGGAUGCUGGGAAGCAUUUCUGUCAGCUGCUUUGUCAACAGAGGAUUGAGCAUCA
B20: chr11:29608197:29608198:+_ENSMUSG00000020458_ENSMUST00000102843|mus_mus|motif|central (ssRNA)
RNA: GGGAGUUCUACAGUCCGACGAUCUGGAAUUUCAUUAGAUGCAGCAUCUUUUGUAAUAUGUAAAUUGGGCUGAAAAGACUCGGAAUAUGGCUUUCCUACCUCCUGAGGUGAAGCACUAAGUCUCUCCUUAUGUUUGUGUUGUGUCAACAGAGGAUUGAGCAUCA
B21: chr12:25667166:25667167:+_ENSMUSG00000036333_ENSMUST00000066652|mus_hu|FALSE|FALSE (ssRNA)
RNA: GGGAGUUCUACAGUCCGACGAUCUCCUCUACAUAAUUUAUGACGCUCUGUGAUAUCAAAACUGACAUUUUCACAGAAAGCUGCAAUUAACUUUAUUUGAAUACCUGGUCCUCAGCUCCGGCGGAACGGGCCCGCUCGGCUGCACAACAGAGGAUUGAGCAUCA
B22: chr14:24607556:24607557:+_ENSG00000092010_ENST00000206451|hu_hu|FALSE|FALSE (ssRNA)
RNA: GGGAGUUCUACAGUCCGACGAUCAUCACCCACAUGGGGCUGCUUGGCUGCUUUAGUCACUGCAUCACCACGCUCAGAGAAAUACUUAGAGAUUUGAGUGUGGAAGCCUUCUAGCUUGGUGUGGAGGCUGGUCAUCAGCUCAAACAACAGAGGAUUGAGCAUCA

This is one part of the list.

For this test, the target named is T1, UNK ZnF1-3 (human, UniProt Q9C0B0 31-174).
T1 sequence: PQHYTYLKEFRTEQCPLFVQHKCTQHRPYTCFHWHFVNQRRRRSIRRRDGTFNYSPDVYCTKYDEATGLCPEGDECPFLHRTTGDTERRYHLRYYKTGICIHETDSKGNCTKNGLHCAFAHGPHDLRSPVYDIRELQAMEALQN
The experiment in a line: nsRBNS (natural sequence RNA bind-n-seq); RBNS binding buffer (assumed for nsRBNS): 25 mM Tris pH 7.5, 150 mM KCl, 3 mM MgCl2, 0.01% Triton X-100, 500 ug/ml BSA, 20 U/ml SUPERase-In, 4 C; UNK is unkempt and MSI1 is Musashi-1; names of the RNAs are library labels; protein concentration not given here; high values mean tight binding.
B1 showed a binding signal of 0.876 enrichment R.

Regarding B2, the binding signal turned out to be 2.37 enrichment R.

In turn, B3 displayed a binding signal of 0.74 enrichment R.

B4 yielded a binding signal of 0.869 enrichment R.

Molecule B5 yielded a binding signal of 0.407 enrichment R.

Turning to B6, the binding signal is 0.93 enrichment R.

Take B7: the binding signal is 0.917 enrichment R.

Molecule B8 gave a binding signal of 0.77 enrichment R.

The molecule B9 showed a binding signal of 0.759 enrichment R.

B10 yielded a binding signal of 1.28 enrichment R.

B11: the binding signal was found to be 1.38 enrichment R.

The molecule B12 registered a binding signal of 0.956 enrichment R.

In turn, B13 had a binding signal of 1.36 enrichment R.

Consider B14, for which the binding signal came to 1.15 enrichment R.

Turning to B15, the binding signal was found to be 1.48 enrichment R.

Take B16: the binding signal was 0.955 enrichment R.

On to B17, for which the binding signal amounted to 1.3 enrichment R.

In turn, B18 came in with a binding signal of 0.292 enrichment R.

For B19, the binding signal is 0.426 enrichment R.

In the case of B20, the binding signal was determined as 1.69 enrichment R.

Molecule B21 gave a binding signal of 0.597 enrichment R.

The molecule B22 gave a binding signal of 1.32 enrichment R.
